These results are taken from PMC9911399, “Two distinct binding modes provide the RNA-binding protein RbFox with extraordinary sequence specificity”.

Sequences and labels used below:
B1: CUUCGAU (DNA:RNA)
RNA: GGGAGACCGGAAUUCAGAUUGUCCCUUCGAUUUAAAUCCCGUCGUAGCCACCA
DNA 1: CAATCTGAATTCCGGTCTCCC
DNA 2: TGGTGGCTACGACGGGATT
B2: CGAACCU (DNA:RNA)
RNA: B1 RNA with U26G, U27A, C28A, G29C, A30C
DNA 1: CAATCTGAATTCCGGTCTCCC
DNA 2: TGGTGGCTACGACGGGATT
B3: UCAACGU (DNA:RNA)
RNA: B1 RNA with C25U, U26C, U27A, C28A, G29C, A30G
DNA 1: CAATCTGAATTCCGGTCTCCC
DNA 2: TGGTGGCTACGACGGGATT
B4: CCGUGCC (DNA:RNA)
RNA: B1 RNA with U26C, U27G, C28U, A30C, U31C
DNA 1: CAATCTGAATTCCGGTCTCCC
DNA 2: TGGTGGCTACGACGGGATT
B5: GGUCUGG (DNA:RNA)
RNA: B1 RNA with C25G, U26G, G29U, A30G, U31G
DNA 1: CAATCTGAATTCCGGTCTCCC
DNA 2: TGGTGGCTACGACGGGATT
B6: AUACAAC (DNA:RNA)
RNA: B1 RNA with C25A, U27A, G29A, U31C
DNA 1: CAATCTGAATTCCGGTCTCCC
DNA 2: TGGTGGCTACGACGGGATT
B7: CAGAUAG (DNA:RNA)
RNA: B1 RNA with U26A, U27G, C28A, G29U, U31G
DNA 1: CAATCTGAATTCCGGTCTCCC
DNA 2: TGGTGGCTACGACGGGATT
B8: AUUUCCU (DNA:RNA)
RNA: B1 RNA with C25A, C28U, G29C, A30C
DNA 1: CAATCTGAATTCCGGTCTCCC
DNA 2: TGGTGGCTACGACGGGATT
B9: CCCAUUC (DNA:RNA)
RNA: B1 RNA with U26C, U27C, C28A, G29U, A30U, U31C
DNA 1: CAATCTGAATTCCGGTCTCCC
DNA 2: TGGTGGCTACGACGGGATT

Changes are numbered by the printed parent chain; changes in the protein carry UniProt numbers. The list shows a part of the results.

For the test, the target named is T1, RBFOX1 RRM RbFoxmut (Fox-RRM*) (Homo sapiens, UniProt Q9NWB1 109-208, R118D;E147R;N151S;E152T).
T1 sequence: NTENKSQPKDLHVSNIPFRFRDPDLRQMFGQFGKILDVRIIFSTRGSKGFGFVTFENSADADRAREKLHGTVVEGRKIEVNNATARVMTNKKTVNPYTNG
As to the kind of experiment: EMSA; HiTS-Eq, 1 nM pool, 10 min; buffer printed only for the single-RNA assays: 10 mM Tris pH 7.5, 150 mM NaCl, 3.4 mM EDTA, 0.001% NP-40, 30 C. As to conditions: tags: His6 N-terminal (pET28a); label: 5' 32P. The method, boiled down: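 Purified wild-type or mutant RbFox RRM at increasing concentrations was equilibrated with 1 nM of 5′-radiolabelled RNA carrying 7 randomized nucleotides for 10 min in 50 µL. Unbound RNA was separated by 8% native PAGE and sequenced. Relative association constants came from read-count changes of each RNA species compared with the control reaction, normalised to the cognate motif.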
Background: A gel shift assay detects complexes by their altered migration in electrophoresis.
As for B1, the binding signal was 0.0574 KA relative to UGCAUGU.
Next, B2: 0.111 KA relative to UGCAUGU; B3: 0.0872 KA relative to UGCAUGU.
Next, B4: 0.264 KA relative to UGCAUGU; B5: 0.153 KA relative to UGCAUGU; B6: 0.0726 KA relative to UGCAUGU.
With B7, the binding signal was 0.0591 KA relative to UGCAUGU.
On to B8, for which the binding signal was 0.0863 KA relative to UGCAUGU.
Regarding B9, the binding signal was 0.0844 KA relative to UGCAUGU.
